Reference: the supplement of paper PMC12217912
This is one part of the list. The full chains were built here from the parent and the listed change. Values near 0.05 are background.

B1: TEV protease; numbered along this chain (parent)
chain: MGESLFKGPRDYNPISSSICHLTNESDGHTTSLYGIGFGPFIITNKHLFRRNNGTLVVQSLHGVFKVKDTTTLQQHLVDGRDMIIIRMPKDFPPFPQKLKFREPQREERICLVTTNFQTKSMSSMVSDTSCTFPSGDGIFWKHWIQTKDGQCGSPLVSTRDGFIVGIHSASNFTNTNNYFTSVPKNFMELLTNQEAQQWVSGWRLNADSVLWGGHKVFMVKPEEPFQPVKEATQL

Variants of: B1
Assay: raw area under fraction-flipped curve 0-4 h after induction (AUC4h, not background-subtracted), DNA-recorder readout of cleavage of the substrate (dimensionless); higher = more cleavage of the substrate by the protease variant
Conditions: temperature: 34 °C; time window: 0-4 h after rhamnose induction
Method: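 In vivo DNA recorder in E. coli TOP10(DE3) ΔrhaA at 34 °C. Each TEVp single-site mutant (parent TEVp 0) is paired with a single-site variant of the 7-mer TEVs (canonical ENLYFQ|S). The substrate sits between flexible linkers in a Bxb1-sfGFP-TEVs-SsrA fusion, so cleavage stabilises Bxb1 and speeds flipping of a recombination array, read by NGS. The value is the raw area under the fraction-flipped curve over 0-4 h after rhamnose induction (AUC4h), with ≥20 reads per time point. It is not background-subtracted; inactive controls average about 0.047.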
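Further: Bxb1 expression induced with 0.2% (w/v) L-rhamnose at OD600 near 0.5, cultures sampled hourly, flipped fraction per protease–substrate barcode pair counted by paired-end Illumina sequencing.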

Question: Which results are given for MGESLFKGPRDYNPISSSICHLTNESDGHTTSLYGIGFGPFIITNKHLFRMNNGTLVVQSLHGVFKVKDTTTLQQHLVDGRDMIIIRMPKDFPPFPQKLKFREPQREERICLVTTNFQTKSMSSMVSDTSCTFPSGDGIFWKHWIQTKDGQCGSPLVSTRDGFIVGIHSASNFTNTNNYFTSVPKNFMELLTNQEAQQWVSGWRLNADSVLWGGHKVFMVKPEEPFQPVKEATQL [R51M]?
Answer: area with substrate ENLYFCS: 0.0615; area with substrate ENLYFES: 0.0595; area with substrate ENLYFFS: 0.0684; area with substrate ENLYFHS: 0.0747; area with substrate ENLYFIS: 0.0649; area with substrate ENLYFMS: 0.0716; area with substrate ENLYFNS: 0.0607; area with substrate ENLYFPS: 0.0712; area with substrate ENLYFRS: 0.0533; area with substrate ENLYFTS: 0.0585; area with substrate ENLYFWS: 0.0481

Question: What does the source list for MGESLFAGPRDYNPISSSICHLTNESDGHTTSLYGIGFGPFIITNKHLFRRNNGTLVVQSLHGVFKVKDTTTLQQHLVDGRDMIIIRMPKDFPPFPQKLKFREPQREERICLVTTNFQTKSMSSMVSDTSCTFPSGDGIFWKHWIQTKDGQCGSPLVSTRDGFIVGIHSASNFTNTNNYFTSVPKNFMELLTNQEAQQWVSGWRLNADSVLWGGHKVFMVKPEEPFQPVKEATQL [K7A]?
Answer: area with substrate ENLYFCS: 0.0607; area with substrate ENLYFES: 0.0484; area with substrate ENLYFFS: 0.0627; area with substrate ENLYFGS: 0.0685; area with substrate ENLYFIS: 0.196; area with substrate ENLYFKS: 0.0673; area with substrate ENLYFLS: 0.0498; area with substrate ENLYFNS: 0.0607; area with substrate ENLYFPS: 0.0532; area with substrate ENLYFRS: 0.0766; area with substrate ENLYFSS: 0.0653; area with substrate ENLYFTS: 0.0579; area with substrate ENLYFWS: 0.0494

Question: With MGESLFKGPRDYNPISSSICHLTNESDGHTTSLYGIGFGPFIILNKHLFRRNNGTLVVQSLHGVFKVKDTTTLQQHLVDGRDMIIIRMPKDFPPFPQKLKFREPQREERICLVTTNFQTKSMSSMVSDTSCTFPSGDGIFWKHWIQTKDGQCGSPLVSTRDGFIVGIHSASNFTNTNNYFTSVPKNFMELLTNQEAQQWVSGWRLNADSVLWGGHKVFMVKPEEPFQPVKEATQL [T44L] as the variant, how does the “area with substrate ENLYFCS” value read?
Answer: Its value is 0.0523.

Question: What about the “area with substrate ENLYFDS” value of the same variant?
Answer: Its value is 0.0538.

Question: And the “area with substrate ENLYFES” value?
Answer: The value was 0.0558.

Question: And the “area with substrate ENLYFFS” value?
Answer: The value was 0.0682.

Question: What about the “area with substrate ENLYFGS” value of the same variant?
Answer: Its value is 0.0546.

Question: What about the “area with substrate ENLYFHS” value of the same variant?
Answer: The value was 0.0354.

Question: And the “area with substrate ENLYFIS” value?
Answer: The value was 0.0588.

Question: What about the “area with substrate ENLYFLS” value of the same variant?
Answer: The value was 0.0709.

Question: What about the “area with substrate ENLYFMS” value of the same variant?
Answer: Its value is 0.0525.

Question: What about the “area with substrate ENLYFNS” value of the same variant?
Answer: Its value is 0.0565.

Question: What about the “area with substrate ENLYFPS” value of the same variant?
Answer: The value was 0.0563.

Question: What about the “area with substrate ENLYFRS” value of the same variant?
Answer: The value was 0.0509.

Question: And the “area with substrate ENLYFSS” value?
Answer: Its value is 0.0546.

Question: What about the “area with substrate ENLYFVS” value of the same variant?
Answer: Its value is 0.0852.

Question: What about the “area with substrate ENLYFWS” value of the same variant?
Answer: The value was 0.0346.

Question: Which “area with substrate ENLYFCS” value does the source give for MGESLFKGPRDYNPISSSICHLTNESDGHTTSLYGIGFGPFIITNKHLFRRNNGTLVVQSLHGVFKVKDTTTLQQHLVDGRDMIIIRMPKDFPPFPQKLKFREPQREERICLVTTNFQTKSMSSMVSDTSCTFPSGDGIFWKHWIQTKDGQCGSPLVSTRDGFIVGIHSASNFTNTNNYFTSVPKNFMELLTNQEAQQWVSNWRLNADSVLWGGHKVFMVKPEEPFQPVKEATQL [G202N] here?
Answer: The value was 0.0499.

Question: What about the “area with substrate ENLYFFS” value of the same variant?
Answer: Its value is 0.0761.

Question: And the “area with substrate ENLYFIS” value?
Answer: The value was 0.0541.

Question: What about the “area with substrate ENLYFKS” value of the same variant?
Answer: The value was 0.0632.

Question: What about the “area with substrate ENLYFMS” value of the same variant?
Answer: The value was 0.0739.

Question: And the “area with substrate ENLYFPS” value?
Answer: The value was 0.0614.

Question: What about the “area with substrate ENLYFSS” value of the same variant?
Answer: Its value is 0.0647.

Question: What about the “area with substrate ENLYFTS” value of the same variant?
Answer: The value was 0.0632.

Question: What about the “area with substrate ENLYFVS” value of the same variant?
Answer: The value was 0.0705.

Question: And the “area with substrate ENLYFWS” value?
Answer: Its value is 0.0626.

Question: And the “area with substrate ENLYFYS” value?
Answer: The value was 0.0579.

Question: Which “area with substrate ENLYFCS” value does the source give for MGESLFKGPRDYNPISSSICHLTNESDGHTTSLYGIGFGPFIITNKHLFRRNNGTLVVQSLHGVFKVKDTTTLQQHLVDGRDMIIIRMPKDFPPFPQKLKFREPQREERICLVTTNFQTKSMSSMVSDTSCTFPSGDGIFWKHWIQTKDGQCGSPLVSTRDGFIVGIHSASNFTNTNNYFTSVPKNFMELLTNQEAQQWVSGWELNADSVLWGGHKVFMVKPEEPFQPVKEATQL [R204E] here?
Answer: Its value is 0.0754.

Question: What about the “area with substrate ENLYFHS” value of the same variant?
Answer: Its value is 0.0689.

Question: And the “area with substrate ENLYFIS” value?
Answer: Its value is 0.0631.

Question: What about the “area with substrate ENLYFKS” value of the same variant?
Answer: Its value is 0.0646.

Question: And the “area with substrate ENLYFLS” value?
Answer: The value was 0.0612.

Question: What about the “area with substrate ENLYFMS” value of the same variant?
Answer: Its value is 0.0697.

Question: And the “area with substrate ENLYFNS” value?
Answer: Its value is 0.071.

Question: And the “area with substrate ENLYFPS” value?
Answer: The value was 0.0427.

Question: And the “area with substrate ENLYFTS” value?
Answer: The value was 0.0465.

Question: What about the “area with substrate ENLYFVS” value of the same variant?
Answer: The value was 0.0545.

Question: For MGESLFKGPRDYNPISSSICHLTNESDGHTTSLYGIGFGPFIITSKHLFRRNNGTLVVQSLHGVFKVKDTTTLQQHLVDGRDMIIIRMPKDFPPFPQKLKFREPQREERICLVTTNFQTKSMSSMVSDTSCTFPSGDGIFWKHWIQTKDGQCGSPLVSTRDGFIVGIHSASNFTNTNNYFTSVPKNFMELLTNQEAQQWVSGWRLNADSVLWGGHKVFMVKPEEPFQPVKEATQL [N45S], which “area with substrate ENLYFCS” value is on record?
Answer: Its value is 0.0541.

Question: What about the “area with substrate ENLYFDS” value of the same variant?
Answer: Its value is 0.0685.

Question: And the “area with substrate ENLYFES” value?
Answer: Its value is 0.0608.

Question: What about the “area with substrate ENLYFFS” value of the same variant?
Answer: Its value is 0.0719.

Question: And the “area with substrate ENLYFGS” value?
Answer: The value was 0.0513.

Question: And the “area with substrate ENLYFHS” value?
Answer: Its value is 0.0551.

Question: What about the “area with substrate ENLYFIS” value of the same variant?
Answer: Its value is 0.0571.

Question: And the “area with substrate ENLYFKS” value?
Answer: Its value is 0.0589.

Question: What about the “area with substrate ENLYFLS” value of the same variant?
Answer: The value was 0.0567.

Question: What about the “area with substrate ENLYFMS” value of the same variant?
Answer: The value was 0.0645.

Question: And the “area with substrate ENLYFNS” value?
Answer: Its value is 0.056.

Question: What about the “area with substrate ENLYFPS” value of the same variant?
Answer: Its value is 0.0533.

Question: And the “area with substrate ENLYFRS” value?
Answer: Its value is 0.0625.

Question: What about the “area with substrate ENLYFTS” value of the same variant?
Answer: The value was 0.0421.

Question: And the “area with substrate ENLYFVS” value?
Answer: The value was 0.0567.

Question: What about the “area with substrate ENLYFYS” value of the same variant?
Answer: The value was 0.0527.

Question: Which results are given for MGESLFKGPRDYNPISSSICHLTNESDGHTTSLYGIGFGPFIITNKHLFRRNNGTLVVQSLHGVFKVKDTTTGQQHLVDGRDMIIIRMPKDFPPFPQKLKFREPQREERICLVTTNFQTKSMSSMVSDTSCTFPSGDGIFWKHWIQTKDGQCGSPLVSTRDGFIVGIHSASNFTNTNNYFTSVPKNFMELLTNQEAQQWVSGWRLNADSVLWGGHKVFMVKPEEPFQPVKEATQL [L73G]?
Answer: area with substrate ENLYFCS: 0.0537; area with substrate ENLYFDS: 0.0525; area with substrate ENLYFFS: 0.0478; area with substrate ENLYFGS: 0.0454; area with substrate ENLYFIS: 0.0543; area with substrate ENLYFKS: 0.0404; area with substrate ENLYFMS: 0.0247; area with substrate ENLYFPS: 0.0456; area with substrate ENLYFRS: 0.0446; area with substrate ENLYFSS: 0.0431; area with substrate ENLYFTS: 0.0516; area with substrate ENLYFWS: 0.0408; area with substrate ENLYFYS: 0.0426

Question: Which “area with substrate ENLYFCS” value does the source give for MGESLFKGPRDYNPISSSICHLTNESDGHTTSLYGIGFGPFIITNKHLFRRNNGTLVVQSLHFVFKVKDTTTLQQHLVDGRDMIIIRMPKDFPPFPQKLKFREPQREERICLVTTNFQTKSMSSMVSDTSCTFPSGDGIFWKHWIQTKDGQCGSPLVSTRDGFIVGIHSASNFTNTNNYFTSVPKNFMELLTNQEAQQWVSGWRLNADSVLWGGHKVFMVKPEEPFQPVKEATQL [G63F] here?
Answer: Its value is 0.0539.

Question: What about the “area with substrate ENLYFDS” value of the same variant?
Answer: Its value is 0.0404.

Question: What about the “area with substrate ENLYFFS” value of the same variant?
Answer: Its value is 0.0654.

Question: What about the “area with substrate ENLYFGS” value of the same variant?
Answer: Its value is 0.0628.

Question: And the “area with substrate ENLYFIS” value?
Answer: The value was 0.0574.

Question: What about the “area with substrate ENLYFKS” value of the same variant?
Answer: The value was 0.0503.

Question: And the “area with substrate ENLYFMS” value?
Answer: The value was 0.0607.

Question: What about the “area with substrate ENLYFNS” value of the same variant?
Answer: The value was 0.0573.

Question: And the “area with substrate ENLYFPS” value?
Answer: Its value is 0.053.

Question: And the “area with substrate ENLYFSS” value?
Answer: Its value is 0.0295.

Question: And the “area with substrate ENLYFTS” value?
Answer: The value was 0.0603.

Question: And the “area with substrate ENLYFVS” value?
Answer: Its value is 0.0715.

Question: What about the “area with substrate ENLYFWS” value of the same variant?
Answer: The value was 0.0511.

Question: What does the source list for MGESLFKGPRDYNPISSSICHLTNESDGHTTSLYGIGFGPFIITNKHLFRRNNGTLVVQSLHGVFKVKDTTTLQQHLVDGRDMIIIRMPKDFPPFPQKLKFREPQREERICLVTTNFQTKSMSSMVSDTSCTFPSGDGIFWKHWIQTKDGQCYSPLVSTRDGFIVGIHSASNFTNTNNYFTSVPKNFMELLTNQEAQQWVSGWRLNADSVLWGGHKVFMVKPEEPFQPVKEATQL [G153Y]?
Answer: area with substrate ENLYFCS: 0.0482; area with substrate ENLYFES: 0.0569; area with substrate ENLYFFS: 0.0356; area with substrate ENLYFHS: 0.0498; area with substrate ENLYFIS: 0.0536; area with substrate ENLYFNS: 0.0671; area with substrate ENLYFPS: 0.0522; area with substrate ENLYFTS: 0.0443; area with substrate ENLYFYS: 0.0477
